Assay results as given in paper PMC4999519.
Results are given in words; binding and its absence hold for the method and conditions named. In cells and extracts the contact can be indirect. Some binding calls cover weakened binding; strength is not graded here. For some of these results: Sequences can lack the tags named with a protein.

T1: Peroxisome proliferator-activated receptor gamma coactivator 1-alpha (endogenous) (mouse (endogenous in OP9, C2C12, mouse BAT, brown adipocyte line)) (UniProt O70343)
T1 sequence: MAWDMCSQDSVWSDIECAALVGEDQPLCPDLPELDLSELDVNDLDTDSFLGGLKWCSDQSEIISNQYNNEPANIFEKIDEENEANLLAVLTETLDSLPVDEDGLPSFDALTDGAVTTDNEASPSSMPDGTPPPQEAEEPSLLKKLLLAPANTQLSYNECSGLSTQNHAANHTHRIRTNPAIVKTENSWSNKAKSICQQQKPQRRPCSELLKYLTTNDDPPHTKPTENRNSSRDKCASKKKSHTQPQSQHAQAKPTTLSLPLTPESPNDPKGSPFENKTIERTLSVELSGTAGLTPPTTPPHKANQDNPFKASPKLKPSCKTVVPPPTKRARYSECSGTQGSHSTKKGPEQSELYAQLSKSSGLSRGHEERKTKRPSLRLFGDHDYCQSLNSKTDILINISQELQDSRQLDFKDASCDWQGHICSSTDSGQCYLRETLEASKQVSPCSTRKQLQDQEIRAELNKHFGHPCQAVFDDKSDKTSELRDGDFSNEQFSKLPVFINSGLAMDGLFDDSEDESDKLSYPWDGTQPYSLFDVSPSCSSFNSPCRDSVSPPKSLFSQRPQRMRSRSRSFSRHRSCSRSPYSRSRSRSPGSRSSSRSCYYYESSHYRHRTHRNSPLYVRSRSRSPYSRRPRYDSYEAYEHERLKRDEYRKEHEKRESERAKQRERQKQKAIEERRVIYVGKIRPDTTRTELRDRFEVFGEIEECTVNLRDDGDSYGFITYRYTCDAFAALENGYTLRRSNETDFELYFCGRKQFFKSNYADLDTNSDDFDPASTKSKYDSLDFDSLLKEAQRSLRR

T2: flag-PGC-1α (UniProt O70343)
T2 sequence: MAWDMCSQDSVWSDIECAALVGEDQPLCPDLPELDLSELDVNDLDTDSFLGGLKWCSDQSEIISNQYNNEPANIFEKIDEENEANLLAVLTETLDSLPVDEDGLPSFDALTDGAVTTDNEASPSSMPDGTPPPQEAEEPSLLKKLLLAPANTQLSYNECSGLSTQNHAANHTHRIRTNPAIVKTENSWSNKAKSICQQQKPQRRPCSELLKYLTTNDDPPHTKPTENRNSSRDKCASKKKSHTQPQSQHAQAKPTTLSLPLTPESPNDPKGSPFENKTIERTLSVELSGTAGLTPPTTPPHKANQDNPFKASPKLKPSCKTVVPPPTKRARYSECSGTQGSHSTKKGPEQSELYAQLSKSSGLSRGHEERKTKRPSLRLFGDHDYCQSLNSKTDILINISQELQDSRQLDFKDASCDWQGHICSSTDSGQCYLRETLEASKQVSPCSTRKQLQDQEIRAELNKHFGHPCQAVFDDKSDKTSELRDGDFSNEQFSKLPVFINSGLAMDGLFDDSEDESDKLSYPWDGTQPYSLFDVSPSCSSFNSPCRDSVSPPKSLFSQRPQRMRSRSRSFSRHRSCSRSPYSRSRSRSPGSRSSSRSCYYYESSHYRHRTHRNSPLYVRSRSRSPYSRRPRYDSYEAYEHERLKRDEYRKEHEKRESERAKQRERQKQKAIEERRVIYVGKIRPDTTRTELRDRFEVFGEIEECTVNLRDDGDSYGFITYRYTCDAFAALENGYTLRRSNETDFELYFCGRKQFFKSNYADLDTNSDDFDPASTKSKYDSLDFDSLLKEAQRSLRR


Key:
[1] = target: T1, Peroxisome proliferator-activated receptor gamma coactivator 1-alpha (endogenous) (mouse (endogenous in OP9, C2C12, mouse BAT, brown adipocyte line)); experiment: co-IP; nuclear extracts of C2C12 myotubes treated with vehicle or Iso/IBMX for 2 h; IP of PGC-1α or of Perilipin 5; IP buffer 20 mM HEPES pH 7.9, 0.15 M NaCl, 1 mM EDTA, 1 mM EGTA, 1 mM DTT; 4 °C
[2] = target: T1, Peroxisome proliferator-activated receptor gamma coactivator 1-alpha (endogenous) (mouse (endogenous in OP9, C2C12, mouse BAT, brown adipocyte line)); experiment: co-IP; whole-cell lysate of brown adipocytes treated with vehicle or Iso/IBMX for 2 h; IP of Perilipin 5 or of PGC-1α; controls IgG and siRNA for PGC-1α and/or Perilipin 5; also with orlistat or siATGL; lysis in HEPES pH 7.4, 150 mM NaCl, 2 mM EDTA, 1% Triton X-100, 0.5% cholate; 4 °C
[3] = target: T1, Peroxisome proliferator-activated receptor gamma coactivator 1-alpha (endogenous) (mouse (endogenous in OP9, C2C12, mouse BAT, brown adipocyte line)); experiment: proximity ligation; DuoLink in situ PLA in C2C12 differentiating myoblasts treated with vehicle or Iso/IBMX for 2 h, fixed and permeabilised; endogenous proteins
flag-PGC-1α = target: T2, flag-PGC-1α; experiment: co-IP; whole-cell extract of C2C12 myoblasts transfected with myc-Perilipin 5 and flag-PGC-1α and treated with Iso/IBMX for 2 h; flag and myc antibodies; non-transfected cells as control

| binding [1] | binding [2] | binding [3] | binding (flag-PGC-1α) | Binder |
| --- | --- | --- | --- | --- |
| binds | binds | binds |  | Perilipin 5 (endogenous) (protein, UniProt Q8BVZ1 1-463) MDQRGEDTTLAPHSRMSGDQTAQDPGSSLGELDQQNVVNRVVALPLVKATCTAVSSAYNSAKDRHPLLGSACRLAEHCVCSVTTCALDHAQPLLEHLQPQLATVNDLACRGLDKLEEKLPFLQQPSDMVVTSAKDTVAKSVTGMVDLAQRGRRWSGELRRSMSQAMDMVLGKSEKLVDRFLPMTEAELAVLAAEAEGPEVGTVEEQRQQQGYFVRLGSLSARLRHLAYEHSLGKLRQSKHRTQEMLAQLQETLELIQHMQRGASPSPTFHPPKTQELWGSWSPCLENGRSHSEVELETLALSRSLTLELQNAVDALAGCVRGLPPSAQAKVAEVQRSVDALQATFADAHCLGDVAPTALAEGRGSVARAHACVDEFLDLVLRAMPLPWLVGPFAPILVEQSEPLINLATCVDEVVGDPDPRWAHMDWPAQKRAWEAESADPGGQEAEPPRGQGKHTMMPELDF |
|  |  |  | binds | myc-Perilipin 5 (transfected in C2C12 myoblasts) (protein, UniProt Q8BVZ1 1-463) MDQRGEDTTLAPHSRMSGDQTAQDPGSSLGELDQQNVVNRVVALPLVKATCTAVSSAYNSAKDRHPLLGSACRLAEHCVCSVTTCALDHAQPLLEHLQPQLATVNDLACRGLDKLEEKLPFLQQPSDMVVTSAKDTVAKSVTGMVDLAQRGRRWSGELRRSMSQAMDMVLGKSEKLVDRFLPMTEAELAVLAAEAEGPEVGTVEEQRQQQGYFVRLGSLSARLRHLAYEHSLGKLRQSKHRTQEMLAQLQETLELIQHMQRGASPSPTFHPPKTQELWGSWSPCLENGRSHSEVELETLALSRSLTLELQNAVDALAGCVRGLPPSAQAKVAEVQRSVDALQATFADAHCLGDVAPTALAEGRGSVARAHACVDEFLDLVLRAMPLPWLVGPFAPILVEQSEPLINLATCVDEVVGDPDPRWAHMDWPAQKRAWEAESADPGGQEAEPPRGQGKHTMMPELDF |
